# Results taken from article PMC4336329 (PLoS ONE, 2015).
# The campaign covered roughly 310,000 compounds. About 14,000 (4.5%) showed an effect of 50% or more. The effect is printed as a negative number. The list shows a part of the results.
# Molecular target: human ether-à-go-go-related gene (hERG) potassium channel (human, UniProt Q12809)
# Experiment: primary screen, population patch clamp on CHO cells stably expressing hERG
# 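Note: peak tail current of the secondary pulse compared with the same well before compound.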
# human ether-à-go-go-related gene (hERG) potassium channel, sequence (Q12809 whole entry, looked up): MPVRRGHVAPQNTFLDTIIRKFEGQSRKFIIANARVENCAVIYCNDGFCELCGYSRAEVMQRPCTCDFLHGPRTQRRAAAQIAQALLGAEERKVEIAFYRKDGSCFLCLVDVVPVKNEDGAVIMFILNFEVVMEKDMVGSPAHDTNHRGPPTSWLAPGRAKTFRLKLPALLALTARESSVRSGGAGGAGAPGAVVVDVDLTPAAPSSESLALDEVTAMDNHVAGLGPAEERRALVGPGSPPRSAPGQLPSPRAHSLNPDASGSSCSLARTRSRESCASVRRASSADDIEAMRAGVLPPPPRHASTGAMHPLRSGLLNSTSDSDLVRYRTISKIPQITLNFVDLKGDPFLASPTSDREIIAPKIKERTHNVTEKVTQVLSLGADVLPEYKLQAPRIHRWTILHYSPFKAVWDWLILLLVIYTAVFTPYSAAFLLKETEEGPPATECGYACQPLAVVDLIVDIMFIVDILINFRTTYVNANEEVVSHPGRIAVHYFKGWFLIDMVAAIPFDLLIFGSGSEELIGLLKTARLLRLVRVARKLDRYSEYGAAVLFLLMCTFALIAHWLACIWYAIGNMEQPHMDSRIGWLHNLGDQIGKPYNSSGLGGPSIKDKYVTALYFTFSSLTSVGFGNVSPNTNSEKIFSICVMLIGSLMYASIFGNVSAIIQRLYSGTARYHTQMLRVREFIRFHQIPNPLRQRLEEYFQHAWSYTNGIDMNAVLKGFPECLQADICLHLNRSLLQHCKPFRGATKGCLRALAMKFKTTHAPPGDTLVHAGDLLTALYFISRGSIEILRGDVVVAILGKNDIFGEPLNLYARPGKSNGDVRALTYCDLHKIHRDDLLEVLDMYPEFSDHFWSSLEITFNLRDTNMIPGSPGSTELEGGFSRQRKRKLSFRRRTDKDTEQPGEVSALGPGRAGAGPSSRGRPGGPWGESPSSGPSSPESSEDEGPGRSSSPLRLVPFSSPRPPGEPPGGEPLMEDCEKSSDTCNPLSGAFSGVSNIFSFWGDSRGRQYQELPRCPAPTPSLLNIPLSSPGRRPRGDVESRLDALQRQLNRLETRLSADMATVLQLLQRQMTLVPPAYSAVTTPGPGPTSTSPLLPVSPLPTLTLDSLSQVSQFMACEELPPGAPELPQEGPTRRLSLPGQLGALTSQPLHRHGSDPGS
row,Compound,"hERG current change (%, negative = inhibition) at 10uM"
1,O=C1C=C(c2cccnc2)CCC1,13.5%
2,COc1ccc(Nc2nc3[nH]c(=O)cc(O)c3s2)cc1,14.2%
3,CCCCn1c(N)c(N(Cc2ccccc2OC)C(=O)c2cc(=O)[nH]c3ccccc23)c(=O)[nH]c1=O,17.1%
4,CCC(C)(C)NC(=O)C(OC(=O)c1cc2sccc2n1C)c1ccc(OC)cc1 (stereo not shown),-6.58%
5,O=C(Nc1ccccn1)Nc1cccs1,13.4%
6,CC(=O)NS(=O)(=O)c1ccc(NC(=S)NC(=O)CC(C)C)cc1,25.5%
7,COC(=O)COc1ccc(S(=O)(=O)NCCC2=CCCCC2)cc1Cl,-10.1%
8,CCCOc1nc(SCCC)nc2c1cnn2-c1ccccc1,16.5%
9,CCC(C)NC(=O)/C(=C/c1ccco1)c1ccccc1 (stereo not shown),-0.00562%
10,COc1ccc(C)cc1S(=O)(=O)N(C)CC(=O)Nc1ccc2c(c1)OCO2,-6.06%
11,CC[N+](CC)(CC)CCC(O)(c1ccccc1)C1CCCCC1.[Cl-] (stereo not shown),11.2%
12,CC1Cc2ccccc2N1C(=O)C1CC(=O)N(c2ccccc2)C1 (stereo not shown),1.63%
13,COc1ccccc1NC(=O)CSc1nnc(C2CCCCC2)n1C,3.77%
14,NC1=NC(=Nc2cccc(S(N)(=O)=O)c2)c2ccccc21,8.88%
15,OCC1(Cc2ccccc2)CCN(CCCC2CCCC2)CC1,-76.8%
16,O=C(CC(=O)c1ccccc1)Nc1ccc2c(c1)OCCO2,-4.09%
17,COC(=O)c1sc(S(=O)(=O)N2CCC(C(N)=O)CC2)c(C(=O)OC)c1C,-19.6%
18,Cc1cc(NS(=O)(=O)c2ccc(NC(=O)CCN3C(=O)c4ccccc4C3=O)cc2)no1,10.2%
19,COc1ccc(O)c(-c2nc(N)nc(N)n2)c1,-5.7%
20,CC(C)(C)C(=O)N1CCN(c2ccc(Cl)cc2[N+](=O)[O-])CC1,-39.3%
21,Cc1cccc(OCC(=O)N(Cc2ccc(F)cc2)C2CCS(=O)(=O)C2)c1C (stereo not shown),-42.6%
22,COc1ccc(NC(=O)COC(C)=O)cc1OC,22.1%
23,O=C(Nc1ccc2c(c1)OCO2)C1CC(=O)N(CCc2ccccc2)C1 (stereo not shown),-19.8%
24,CC(=O)Nc1cccc(OCC(=O)/C=C2\N(C)c3ccccc3C2(C)C)c1,2.6%
25,CN1CCN(C(=O)c2ccc(Cl)c(S(=O)(=O)N3CCCCCC3)c2)CC1,-26.3%
